Columns and labels:
[1] = system: HIV (activated by CMV IE) in U937 cells; experiment: HIV growth activated by CMV IE in U937 cells; type: cell-based, HIV-1; details: FIG. 3
[2] = system: HIV (activated by HSV IE-110) in U937 cells; experiment: HIV growth activated by HSV IE110 in U937 cells (syncytium-forming assay); details: 3 mM, FIGS. 3 and 4
Description: FIG. 3 illustrates the effect of the drug 6-ABP on HIV activation by cotransfection of HIV with HSV-IE 110 in macrophages (U937 cells). The rationale for taking this approach and the syncytium-forming assay are described in Example 3 with results shown in Table 2. For the purpose of determining the ability of 6-ABP to inhibit HIV growth activation, the duplicate cells cultures were used. In experiments 1 and 2, U937 cells were transfected with HSV IE-110 gene and, CMV IE gene and infected HIV. The viral HIV growth is shown to reach up to and above 2,500 SFU/ml in 4 days for U937 cells cotransfected with IE-110 and to about 1200 to 1400 SFU/ml between 4-8 days for U937 cotransfected with CMV IE. In experiment 3, U937 cells transfected with HSV IE-110 and infected with HIV were treated with 3 mM of 6-ABP. […]
In one series of experiments, the effect of HSV IE110 and CMV IE2 gene expression on HIV replication using the syncytium assay formation on MT2 cells that defines HIV growth was examined. […] HIV titers are expressed as syncytia forming units/ml.
Transfection was 24 hours before HIV infection. […] The SFU assay consists of the method of Harada described in Science, 299:563, (1985) modified according to Virology, 167:299 (1988) for direct microscopic quantitation of syncytia.

## Nc1ccc2oc(=O)ccc2c1 [6-ABP, 6-amino-1,2-benzopyrone]
[1]
  effect on CMV-IE-activation of HIV: CMV-IE-activation is also inhibited by the drug
[2]
  effect of drug addition post infection: as effective as when cells were pre-treated

— patent US5583155A, “6-amino-1,2-benzopyrones useful for treatment of viral diseases” (Octamer, Inc., priority 1994, dated 1996)
